# According to PubChem BioAssay (NCATS):
# Inconclusive results, whose numbers are uncertain, are shown with a selection of clear calls. For some assays here: Potencies of inconclusive entries are doubtful fits and often do not repeat. Calls of active or inactive are those of the source. Unless noted, calls come from the whole dose curve; as a rule, active = well fitted curve in either direction with a large enough effect (not every such curve was filed as active); inconclusive = small, poorly fitted or top-dose-only effect, or another doubt; inactive = flat fitted curve, though single readings scatter.
# Legend:
# [1] = molecular target: Glucocorticoid receptor (Homo sapiens) (UniProt P04150); experiment: GR-GFP Redistribution (AID 450;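 active = compounds whose dose series gives a full or clear partial fitted curve of increased nuclear translocation; inconclusive = weak partial curve or effect only at the top dose; inactive = no dose-dependent translocation response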; note: potency is the fitted concentration of half-maximal effect); conditions: U2OS GR-GFP nuclear translocation, laser cytometry, 2 h
# [2] = Stat Signaling Pathway (AID 446); conditions: ME-180 SIE beta-lactamase reporter, IL-6 stimulated, 5 h; at 7.69 µM (top of the series) unless noted;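 note: ME-180 cervical cancer cells given 40 pM IL-6 alongside compound; SIE-controlled beta-lactamase reporter measured as 460/530 nm FRET emission ratio; top concentration of the series differs between compounds; % is set by controls: 0 for no effect and ±100 for the full control effect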
# Outline: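 IL-6/STAT signaling read in ME-180 cells via an SIE beta-lactamase reporter. Stimulus was 40 pM IL-6 (its AC50) for 5 hrs, so both activation and inhibition register.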
# [3] = qHTS Assay for Identification of Small Molecule Agonists for Hypoxia Response Element Signaling Pathway (AID 914; active = well fitted activation curve with a large enough effect in the signal ratio, with a control signal flat, not every such curve was filed as active; inconclusive = small, poorly fitted or top-dose-only effect, or effect the other way, or a change in a side signal; the % refers to the signal ratio; note: potency is the fitted concentration of half-maximal effect; for activation: top concentration of the series differs between compounds; % of control where 0% means no effect); conditions: ME-180 (cervical carcinoma) HRE-bla reporter, beta-lactamase ratio, CoCl2, 17 h; activation: stronger effect = higher value
# Outline: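 Cells were plated overnight, pin-dosed with compound in a titration series, co-stimulated with EC50 CoCl2 and incubated 17 hours at 37 degrees Celsius. CCF4 substrate was then loaded, and AC50 values came from the 460nm/530nm ratio.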
# [4] = qHTS Assay for Identification of Small Molecule Agonists for Thrombopoietin (TPO) Signaling Pathway (AID 917; active = well fitted activation curve with a large enough effect; inconclusive = small, poorly fitted or top-dose-only effect, or effect the other way; note: potency is the fitted concentration of half-maximal effect; for activity, positive = activation: % is set by controls: 0 for no effect and ±100 for the full control effect); conditions: TPO signaling pathway reporter cells, agonist qHTS, stimulated with TPO at its EC50; activity, positive = activation: at 38.5 µM (top of the series)
# Outline: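 Murine Ba/F3 cells stably expressing human TPO receptor and a Glycoprotein IIb promoter–luciferase reporter were IL-3-starved overnight, then treated with compounds plus TPO (26 pM final, its EC50) for 24 hrs at 37 C; luminescence was read.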
# [5] = molecular target: Glucocorticoid receptor (Homo sapiens) (UniProt P04150); experiment: GR-EFC Redistribution (AID 451; calls by dose curve; note: potency is the fitted concentration of half-maximal effect); conditions: CHO-K1 GR-EFC translocation, beta-gal luminescence, 2 h
# Outline: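 Translocation of GR-ED fusion to nuclear EA restores b-gal, read by luminescence after 1 h room-temperature detection. Engineered CHO-K1 biosensor cells, 1,000/well, exposed 2 h at 37 C to titrations up to 46 uM final.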
# [6] = molecular target: Mitogen-activated protein kinase 10 (Mus musculus) (UniProt Q61831); experiment: JNK3 AlphaScreen Assay (AID 530); conditions: JNK3 lysate, c-Jun phosphorylation; activity change, negative = inhibition: at 57.1 µM (top of the series);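 note: kinase came from lysate of stimulated human HepG2 cells; signal reports phosphorylation of biotinylated GST-cJun 1-79 at Ser73 with 10 µM ATP; % is set by controls: 0 for no effect and ±100 for the full control effect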
# Outline: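 Room-temperature AlphaScreen kinase assay; pre-activated HepG2 lysate as JNK3 source, biotin-GST-cJun(1-79) substrate, 10 uM ATP, compound 15 min preincubation.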
# Tags give direction and shape of the fitted curve or compound fluorescence and quenching.
# UniProt P04150, sequence (P04150 whole entry, looked up, the tested form may be a part): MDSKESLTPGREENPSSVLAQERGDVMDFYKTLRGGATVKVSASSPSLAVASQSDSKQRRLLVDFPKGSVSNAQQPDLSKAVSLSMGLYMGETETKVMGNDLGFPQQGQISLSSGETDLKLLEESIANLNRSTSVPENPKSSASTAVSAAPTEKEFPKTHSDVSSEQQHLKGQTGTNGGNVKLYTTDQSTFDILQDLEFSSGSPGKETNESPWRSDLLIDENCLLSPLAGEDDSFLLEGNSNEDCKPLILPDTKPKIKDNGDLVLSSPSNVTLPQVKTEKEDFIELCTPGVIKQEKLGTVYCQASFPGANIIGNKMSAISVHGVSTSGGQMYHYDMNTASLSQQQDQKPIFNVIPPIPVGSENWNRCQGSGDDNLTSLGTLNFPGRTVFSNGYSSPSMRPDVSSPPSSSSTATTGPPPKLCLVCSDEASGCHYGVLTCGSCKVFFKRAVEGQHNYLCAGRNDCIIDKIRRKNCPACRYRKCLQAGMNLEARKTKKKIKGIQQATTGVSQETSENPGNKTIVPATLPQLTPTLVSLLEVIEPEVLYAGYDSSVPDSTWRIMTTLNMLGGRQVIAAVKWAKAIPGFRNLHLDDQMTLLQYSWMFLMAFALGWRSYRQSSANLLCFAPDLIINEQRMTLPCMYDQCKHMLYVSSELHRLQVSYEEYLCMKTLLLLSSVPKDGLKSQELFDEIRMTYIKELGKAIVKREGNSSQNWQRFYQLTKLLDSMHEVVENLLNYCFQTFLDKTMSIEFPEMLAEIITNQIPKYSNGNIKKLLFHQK
compound,measurement,setting,value
CC1CCN(c2ncnc3c2cnn3Cc2ccc(Cl)cc2)CC1,Potency,[1],inactive: > 20.6 µM
COC(=O)c1ccc(-c2sc3nc(N4CCOCC4)c4c(c3c2N)CC(C)(C)OC4)o1,Potency,[1],inconclusive: 13.7 µM [partial curve]
c1ccc2c(c1)[nH]c1c(N3CCN(C4CCCCC4)CC3)ncnc12,"activity, negative = inhibition",[2],inactive: 0.857% [at 17.2 µM]
same,Potency,[3],"inconclusive: 0.126 µM [inhibitor, full curve]"
Cc1cc(C(F)(F)F)c(C#N)c(SCC(=O)NC2CC2)n1,"activity, negative = inhibition",[2],inactive: 1.05% [at 17.2 µM]
same,activation,[3],inactive: 16.3%
Cn1cnc([N+](=O)[O-])c1SCC(=O)O,"activity, negative = inhibition",[2],inconclusive: 124% [activator]
same,activation,[3],inconclusive: 2.4%
CCNc1nc(NC(C)C)nc(N(C#N)C(C)C(=O)N(C)C)n1 (stereo unspecified),Potency,[1],inactive: > 20.6 µM
Nc1nc(Cl)nc2c1ncn2[C@@H]1O[C@@H](COP(=O)(O)OP(=O)(O)OP(=O)(O)O)[C@@H](O)[C@H]1O,"activity, negative = inhibition",[2],inconclusive: 36.9% [activator] [at 38 µM]
same,Potency,[4],"inconclusive: 12.6 µM [inhibitor, partial curve]"
CC(=O)[C@@]1(O)CC[C@@H]2[C@@H]3CCC4=CC(=O)CC[C@@]4(C)[C@H]3CC[C@]21C,Potency,[1],active: 0.162 µM
same,Potency,[5],inconclusive: 380 µM [partial curve]
same,Potency,[6],inactive
same,Potency,[4],inactive
Nc1nonc1OCCc1ccccc1,Potency,[1],inconclusive: 22.8 µM [single point]
Cn1c(=O)c(-c2cccs2)nc2cnc(OCc3ccccc3)nc21,"activity, negative = inhibition",[2],inconclusive: 37% [activator]
same,Potency,[3],"inconclusive: 3.98 µM [activator, single point]"
COc1cc(C2Oc3cc(C4Oc5cc(O)cc(O)c5C(=O)C4O)ccc3OC2CO)ccc1O (stereo unspecified),"activity, negative = inhibition",[2],inactive: -6.2% [at 17.2 µM]
same,Potency,[3],"inconclusive: 12.6 µM [inhibitor, single point]"
CN1CCc2c(sc3c2C(=O)NC(c2ccco2)N3)C1 (stereo unspecified),Potency,[1],inactive: > 20.6 µM
COc1ccccc1CNc1cc(-c2ccccc2C(F)(F)F)ncn1,Potency,[1],inconclusive: 44.6 µM [single point]
O=C(O)[C@H](Cc1ccc(O)c([N+](=O)[O-])c1)N1C(=O)c2ccccc2C1=O,"activity, negative = inhibition",[2],inactive: 2.16%
same,activation,[3],inconclusive: -32.2%
[N-]=[N+]=N[C@@H]1[C@H](O)[C@H](CO)O[C@@H]1n1cnc2c(N)ncnc21,"activity, negative = inhibition",[2],inactive: -12.3%
same,Potency,[3],"inconclusive: 0.251 µM [inhibitor, full curve]"
